Read-outs that look alike come from different tables or passages of the source. Each block holds one binder with its values, some of them ahead of it.
Columns and labels:
[1] = target: T1, IL-1RI_Fc (fusion protein), immobilized mouse IL1RI receptor (mouse, UniProt P13504 20-338, limits assumed); experiment: SPR (Biacore), IL-1RI_Fc captured on the chip with the Human Antibody Capture Kit, analyte injected at 5 rising concentrations from 0.24 to 20 nM
T1 construct: not shown: Fc part; captured with the Human Antibody Capture Kit
T1 sequence (looked up): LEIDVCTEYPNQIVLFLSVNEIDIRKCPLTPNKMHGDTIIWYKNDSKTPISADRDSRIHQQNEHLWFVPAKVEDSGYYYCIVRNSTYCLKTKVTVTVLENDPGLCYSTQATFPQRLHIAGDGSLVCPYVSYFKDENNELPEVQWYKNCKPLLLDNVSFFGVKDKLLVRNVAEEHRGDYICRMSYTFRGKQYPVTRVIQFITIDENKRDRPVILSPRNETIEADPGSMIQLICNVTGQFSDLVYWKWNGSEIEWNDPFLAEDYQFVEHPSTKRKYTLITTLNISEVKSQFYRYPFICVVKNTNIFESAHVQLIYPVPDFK

[2] = target: T1, IL-1RI_Fc (fusion protein), immobilized …; experiment: as above; remark: listed apart in the source

koff [1]: 0.00014 s⁻¹
kon [1]: 150000 M⁻¹ s⁻¹
B1: RDB1816 (IL-1Ra fused to 12 MUC20 tandem repeats, C-terminal His-tag) (other)
chain: [letters of about 150 residues not shown]GGGGSASSESSASSDGPHPVITESRASSESSASSDGPHPVITESRGGGGSASSESSASSDGPHPVITESRASSESSASSDGPHPVITESRGGGGSASSESSASSDGPHPVITESRASSESSASSDGPHPVITESRGGGGSASSESSASSDGPHPVITESRASSESSASSDGPHPVITESRGGGGSASSESSASSDGPHPVITESRASSESSASSDGPHPVITESRGGGGSASSESSASSDGPHPVITESRASSESSASSDGPHPVITESRGSSHHHHHH
notes: Expressed in CHO cells and heavily glycosylated on the mucin domain; also called IL1Ra 12TR; 12TR

koff [2]: 0.00014 s⁻¹
kon [2]: 850000 M⁻¹ s⁻¹
B2: RDB1815 (IL-1Ra fused to 8 MUC20 tandem repeats, C-terminal His-tag) (other)
chain: [letters of about 150 residues not shown]GGGGSASSESSASSDGPHPVITESRASSESSASSDGPHPVITESRGGGGSASSESSASSDGPHPVITESRASSESSASSDGPHPVITESRGGGGSASSESSASSDGPHPVITESRASSESSASSDGPHPVITESRGGGGSASSESSASSDGPHPVITESRASSESSASSDGPHPVITESRGSSHHHHHH
notes: Expressed in CHO cells and heavily glycosylated on the mucin domain; also called IL1Ra 8TR; 8TR
